From the supplement of paper PMC10185492
The list shows a part of the results. Read counts after selection give these values, which scatter widely.

What follows are substances tested on SARS-CoV-2 3CLpro (nsp5) (assay: substrate phage enrichment score (protease-eluted vs HEPES control, +1 offset) (ratio); higher = better cleaved substrate). Conditions: selection round: 4; protease elution time: 15 min.
Procedure: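 Random heptapeptide substrate phage display (M13 pIII fusion, heptapeptide between an N-terminal biotinylated AviTag GLNDIFEAQKIEWHE and pIII; phages immobilised on streptavidin) eluted by cleavage with 50 nM protease in 20 mM HEPES at 37 °C. Selected phages were NGS sequenced, and the enrichment score is (reads in protease sample + 1)/(reads in HEPES blank-selection control + 1).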

Substance	substrate phage enrichment score
HQPIHAP	> 38
TGGSAAA	0.333
RSHSTVQ	> 52
TAQRTGR	0.6
SSTDGLR	> 23
SSLMTEQ	> 60
VIGPAST	1.45
SPTEGKV	0.5
SPQWNPY	1.2
GRAAHHH	0.941
SDMTHPS	> 29
VASSIVQ	4.5
KRNANEQ	> 26
DKVNESR	2.3
KPSSLQS	159
SSESNGS	0.265
EQVGRNR	> 22
ASKGQAT	> 30
GPTIYED	2.1
SFEASHR	8
GIYDMRD	1
RDAAHHH	0.28
CHCEATT	> 47
LKSDTRT	> 23

Substance	substrate phage enrichment score
SSRQGHA	> 30
WCTVSDR	> 74
QKQVYSS	2.67
HRHIGEQ	10.2
HMSNHHH	15
DDKSLLH	12.7
CNYSKGG	> 22
ASVFEDG	0.133
VRTDGSA	> 25
VQSNMIP	> 21
TDDYGGS	> 21
HSRYGCN	4.2
CPQRTLP	0.571
ARQDGLT	> 29
CHRITSR	1.08
ASQAALQ	> 61
PRTQMSR	15.5
NSSHLTR	0.833
NEMRTNR	0.28
DCWTDRD	0.714
NKAAHHH	2.12
RAMPCNR	7.6
CERFQGY	1.43
SEQLSAP	0.983

Substance	substrate phage enrichment score
SLYLETP	> 27
RPHIIIT	0.77
DTCPQDD	1.09
NETRPKW	15
GPHKATR	7.67
GISQGAL	> 219
KCDDQSC	0.667
WPMCFPP	> 57
NKHLQTQ	> 28
WRPARNT	10.5
VRPPIII	2.38
FSKPATV	> 31
SKGTDKR	10
GPTAAEV	> 33
VRTLTTN	2.29
HPQPNPP	> 37
SHPLHRD	> 22
QGYEPVQ	4.79
RAEPPTN	> 27
PSHALPD	16
NTWQDFT	17
RQGTASS	6.43
RSAAAHH	0.774
NPQALRY	0.294

Substance	substrate phage enrichment score
PSIPLNP	5.57
NSIQQES	> 37
SWYVGAP	0.5
TSSCTPR	0.632
RPTATDP	0.846
TGSRSAD	3.6
AISAPES	14
SAAPHQQ	1.83
SEEGVLY	0.793
YQKSTLQ	95.1
PSLRART	2.29
DSWQLRN	> 50
PALQSGS	> 138
EAKCAFG	33.5
SRAHCAR	> 74
CPSQKHH	6.38
AHGRNEN	1.38
RCAQIEE	> 29
TWSTQLQ	> 23
RCTVLQS	> 255
YLREPER	> 43
HGVSMLQ	> 43
PETSDIS	4.2
LSKTRLH	> 29

Substance	substrate phage enrichment score
ATRALLQ	> 529
RDVSGLT	> 29
VGMQGRC	4.9
SALRTDA	1.25
PNLQGGS	2.67
IEILQYK	> 65
EKITMQA	2.56
KELTAGT	3.69
TQQRLTH	0.316
LNGTINR	1.33
KGAAHHH	0.867
RTAAHHH	0.91
TGSVCFQ	> 48
VLREPVG	1.82
NRAGQYG	1.28
CYSPYEW	15.3
CQPNMFM	84.5
PCEMNNA	> 27
APINWQG	19.5
RGRTYES	3.11
ERSPALG	2.55
PNVSVLQ	54.5
PRSVNDS	0.295
SAAAHYH	0.576

Substance	substrate phage enrichment score
DYRPSKT	3.44
VRHDVIV	5.5
LPGTGTG	> 21
TSAKMSS	4.83
ISEPQAW	1.28
CSAAHHH	0.474
RLQSGNR	71.3
SGAPCSH	> 32
PCEAENK	0.733
SQQHFQG	0.474
PVKVRLQ	> 43
YGLRELK	3.67
SLCSFSL	> 23
KEQAGKI	4.55
CAAAPHQ	1.58
INPQKRP	> 39
TCSMRDW	> 23
RSPQRLT	> 57
RAPVGMP	> 32
EPIRPKC	3.12
ENYSDSY	7.67
SAAPQHH	1.36
VSSGGLV	> 22
RLNFQGG	2.62

Substance	substrate phage enrichment score
AQALTGR	7.67
IRSGCPT	13.5
DAHDDYR	8.5
CHPTLLQ	> 23
AQDTGAS	2.43
IRSTTNE	3.17
GRTSQLQ	> 150
VTRSTLH	> 93
SCILQAR	39
SHVGSCR	> 40
APAGSRT	1
AEMPDPR	> 26
AEGTMPC	> 35
EIRGFYD	2.37
HTRLQAR	> 25
VPSDKPP	0.667
VEHFDVK	0.5
LRNWHST	4
LEAWPQS	1.88
RLMRNAP	1.38
MPNGVLT	2.38
CSRTFPS	> 82
EQERSSP	> 21
VSCEANT	> 29

Substance	substrate phage enrichment score
REAPNRA	> 24
CRTCCKT	0.318
KHDVDVR	0.6
SNQTSQQ	4.33
SCAPTRE	> 32
SYETNRN	1.54
PCTSHQR	> 29
APHLNDT	1
CSAELPR	1.75
QAPAIGR	> 79
TYTSGSN	> 21
ACTLNRG	4.28
PCVQCAP	0.0952
GACRLHC	> 51
KQRITSK	10
SDRPIYM	3.33
NHNPTEQ	> 23
GSSAAAH	0.25
MPAAHHH	0.556
ERPCYKQ	> 32
TRQSNAW	13
TSLPNGK	1.44
CAAAHQH	0.788
GPHIIIT	1.5

Substance	substrate phage enrichment score
TKQPKPV	0.571
KPVQLQS	268
PAKHSAP	2.46
LRAPPAT	1.3
RREQNSR	0.895
ACGSSRF	5
NTWWTPH	> 29
PMAAHHH	0.413
LYFQGGS	1.62
ETDGISN	1.8
RPETNAY	8.33
RHVSKAG	> 81
LSRQNTR	> 48
HEPTLPT	> 37
VQVRLQS	> 87
HPAMFDS	10
TCIMQSQ	> 43
GAPRTRP	> 23
ACSYLIP	> 21
PEAENGH	0.2
VPSDTGQ	0.724
FAAAHHH	0.602
PTPLLSG	> 48
PSSFNGC	21

Substance	substrate phage enrichment score
AWSGNGS	> 23
GNRTKLQ	> 25
QLYFQGG	1.02
LPKTCEN	3
SPTWVEP	> 38
ELYGQGG	1.75
PYSWQQR	1.84
EPSNMSQ	> 35
SLNVLSR	2.52
DIGRQTV	3.17
GWAAHHH	1.6
AERNTIC	> 63
HDISRDW	4
HCGPVVN	0.977
TQDGGGT	19
TQTQLHS	7.36
QHNNLSR	8.67
ANAAAHH	0.564
